The list shows a part of the results. At the low end of the ranking, values are background and their order means little.
biological target: GST-SBP-SLBP (stem-loop binding protein) (UniProt Q14493); assay: targeted RNA Bind-n-Seq; conditions: RBNS binding buffer: 25 mM Tris pH 7.5, 150 mM KCl, 3 mM MgCl2, 0.1% Tween, 0.5 mg/mL BSA, 1 mM DTT; 27 nM protein, 750 pM RNA pool; temperature not stated; high values mean tight binding;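 further: DESeq read counts versus GST-SBP nonspecific binding control pulldown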

Row | Sequence | binding signal (log2 fold change)
1 | GGUCACGUCUCAAUCAACUCUAUCCCCAGGGAAAGCCCUGGCAUAUUCAACAGCUCGCAGUCAAG | -0.0964
2 | GGUCACGUCUCAAUCAACUCUUUCCCAGGAGUUUUCUCCUGCUAUGUCAACAGCUCGCAGUCAAG | 0.0645
3 | GGUCACGUCUCAAUCAACUCUAUAGAGGGGGGGAAAACCCCUUUGCCCUCACCGUCAACAGCUCGCAGUCAAG | -0.265
4 | GGUCACGUCUCAAUCAACUCUUCCUCCAGGGAAAACCCUGGCUUUUUCAACAGCUCGCAGUCAAG | 0.185
5 | GGUCACGUCUCAAUCAACUCAAUUUCAGGAGUUUCCUCCUGUUUAUUCAACAGCUCGCAGUCAAG | -0.0395
6 | GGUCACGUCUCAAUCAACUCAUUCCCAGGAGUUUACUCCUGCAAUCUCAACAGCUCGCAGUCAAG | 0.00852
7 | GGUCACGUCUCAAUCAACUCUACUUCCAGGGAAACCCCUGGUUUAUUCAACAGCUCGCAGUCAAG | 0.162
8 | GGUCACGUCUCAAUCAACUCAUUCUCCAGGGAAAACCCUGGCAAUUUCAACAGCUCGCAGUCAAG | -0.119
9 | GGUCACGUCUCAAUCAACUCUCAGGAGGGGGGGAAAACCCCUUUACCCUCACCAUCAACAGCUCGCAGUCAAG | -0.0507
10 | GGUCACGUCUCAAUCAACUCAUCUCCAGGAGUUUCCUCCUGCAUAUUCAACAGCUCGCAGUCAAG | -0.107
11 | GGUCACGUCUCAAUCAACUCCAACGAGGGGGGGAAAACCCCUUUACCCUCAUUUUCAACAGCUCGCAGUCAAG | -0.395
12 | GGUCACGUCUCAAUCAACUCUACUCCCAGGGAAAGCCCUGGCAAUCUCAACAGCUCGCAGUCAAG | -0.277
13 | GGUCACGUCUCAAUCAACUCAUUUCCCAGGGAAAACCCUGGUUUUCUCAACAGCUCGCAGUCAAG | 0.244
14 | GGUCACGUCUCAAUCAACUCCCCAGAGGGGGGGAAAACCCCUUUACCCUCAUCAUCAACAGCUCGCAGUCAAG | -0.284
15 | GGUCACGUCUCAAUCAACUCUAGUCCAGGAGUUUUCUCCUGUUAAUUCAACAGCUCGCAGUCAAG | 0.331
16 | GGUCACGUCUCAAUCAACUCUUCUUCAGGAGUUUCCUCCUGCUAUCUCAACAGCUCGCAGUCAAG | -0.0214
17 | GGUCACGUCUCAAUCAACUCUACUCCCAGGGAAACCCCUGGUAAAUUCAACAGCUCGCAGUCAAG | -0.11
18 | GGUCACGUCUCAAUCAACUCAAGUCCAGGAGUUUGCUCCUGCUAUUUCAACAGCUCGCAGUCAAG | -0.0307
19 | GGUCACGUCUCAAUCAACUCAUCUUCAGGAGUUUACUCCUGUAUACUCAACAGCUCGCAGUCAAG | -0.2
20 | GGUCACGUCUCAAUCAACUCUUUCCCCAGGGAAAUCCCUGGUUUUUUCAACAGCUCGCAGUCAAG | -0.331
21 | GGUCACGUCUCAAUCAACUCUACUUCCAGGGAAAUCCCUGGUUAUUUCAACAGCUCGCAGUCAAG | 0.0578
22 | GGUCACGUCUCAAUCAACUCAUCCCCCAGGGAAAACCCUGGUAUAUUCAACAGCUCGCAGUCAAG | -0.176
23 | GGUCACGUCUCAAUCAACUCAUCCUCCAGGGAAACCCCUGGCUUUCUCAACAGCUCGCAGUCAAG | 0.066
24 | GGUCACGUCUCAAUCAACUCCAAAGAGGGGGGGAAAACCCCUUUGCCCUCACUAUCAACAGCUCGCAGUCAAG | 0.207

Row | Sequence | binding signal (log2 fold change)
25 | GGUCACGUCUCAAUCAACUCUACUCCCAGGGAAAACCCUGGCAAUGUCAACAGCUCGCAGUCAAG | -0.02
26 | GGUCACGUCUCAAUCAACUCUUCUUCAGGAGUUUGCUCCUGCAAUUUCAACAGCUCGCAGUCAAG | -0.0296
27 | GGUCACGUCUCAAUCAACUCUAUUCCAGGAGUUUCCUCCUGCAAAUUCAACAGCUCGCAGUCAAG | 0.037
28 | GGUCACGUCUCAAUCAACUCUUCGUCAGGAGUUUUCUCCUGUUUAUUCAACAGCUCGCAGUCAAG | 0.0771
29 | GGUCACGUCUCAAUCAACUCACAAGAGGGGGGGAAAACCCCUUUACCCUCCAUCUCAACAGCUCGCAGUCAAG | 0.134
30 | GGUCACGUCUCAAUCAACUCUUCUCCAGGAGUUUUCUCCUGCUUUCUCAACAGCUCGCAGUCAAG | -0.0678
31 | GGUCACGUCUCAAUCAACUCAAAAGAGGGGGGGAAAACCCCUUUACCCUCCAUCUCAACAGCUCGCAGUCAAG | 0.156
32 | GGUCACGUCUCAAUCAACUCUUUCUCCAGGGAAACCCCUGGCAAUUUCAACAGCUCGCAGUCAAG | -0.122
33 | GGUCACGUCUCAAUCAACUCACAAGAGGGGGGGAAAACCCCUUUACCCUCAACUUCAACAGCUCGCAGUCAAG | -0.384
34 | GGUCACGUCUCAAUCAACUCUACUUCCAGGGAAACCCCUGGUUAUCUCAACAGCUCGCAGUCAAG | -0.332
35 | GGUCACGUCUCAAUCAACUCAACGCCAGGAGUUUUCUCCUGUUUUUUCAACAGCUCGCAGUCAAG | -0.0716
36 | GGUCACGUCUCAAUCAACUCUUCCUCCAGGGAAAUCCCUGGCAAUUUCAACAGCUCGCAGUCAAG | -0.31
37 | GGUCACGUCUCAAUCAACUCAUUCUCAGGAGUUUGCUCCUGCUAAUUCAACAGCUCGCAGUCAAG | 0.0828
38 | GGUCACGUCUCAAUCAACUCUUUUCCCAGGGAAAUCCCUGGUUAUGUCAACAGCUCGCAGUCAAG | -0.00159
39 | GGUCACGUCUCAAUCAACUCAUUUCCCAGGGAAACCCCUGGUUUACUCAACAGCUCGCAGUCAAG | -0.108
40 | GGUCACGUCUCAAUCAACUCACUCGAGGGGGGGAAAACCCCUUUACCCUCAAACUCAACAGCUCGCAGUCAAG | -0.435
41 | GGUCACGUCUCAAUCAACUCUUUUUCAGGAGUUUCCUCCUGCAAUCUCAACAGCUCGCAGUCAAG | 0.0978
42 | GGUCACGUCUCAAUCAACUCAUCCUCCAGGGAAAUCCCUGGUUUUCUCAACAGCUCGCAGUCAAG | 0.027
43 | GGUCACGUCUCAAUCAACUCUUUUCCAGGAGUUUUCUCCUGUAAUGUCAACAGCUCGCAGUCAAG | 0.0317
44 | GGUCACGUCUCAAUCAACUCCUAGGAGGGGGGGAAAACCCCUUUACCCUCAUCUUCAACAGCUCGCAGUCAAG | -0.237
45 | GGUCACGUCUCAAUCAACUCAUCUCCCAGGGAAACCCCUGGCUUUCUCAACAGCUCGCAGUCAAG | 0.067
46 | GGUCACGUCUCAAUCAACUCAACUCCAGGAGUUUACUCCUGCAUUCUCAACAGCUCGCAGUCAAG | 0.0676
47 | GGUCACGUCUCAAUCAACUCUUCUCCCAGGGAAACCCCUGGCUUUUUCAACAGCUCGCAGUCAAG | -0.194

— publication PMC5892938
